Results as given in PubChem BioAssay AID995 (National Center for Advancing Translational Sciences (NCATS), 2007).
Hit rate of the full screen: of about 72,000 compounds, about 710 (0.99%) were called active. Inconclusive results, whose numbers are uncertain, are shown with a selection of clear calls. Calls come from the whole dose curve; as a rule, active = well fitted inhibition curve with a large enough effect; inconclusive = small, poorly fitted or top-dose-only effect; inactive = no such curve, though single readings can be large or run the other way. No potency is given beside an inconclusive call; the fits are too rough.

Test: qHTS Assay for Inhibitors of the ERK Signaling Pathway using a Homogeneous Screening Assay; note: nearly all actives have a fitted effect of over 55% in size
Conditions: HEK293-V1b, vasopressin-stimulated pERK AlphaScreen; activity, negative = inhibition: at 57.5 µM (top of the series) unless noted
Summary of the method: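 HEK293 cells stably expressing V1b receptor, seeded overnight in 1% FBS, were treated with compounds for 30 min at 37C, then stimulated 5 min with 25 nM vasopressin; phospho-ERK read by AlphaScreen SureFire after lysis.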
% is set by controls: 0 for no effect and ±100 for the full control effect; potency is the fitted concentration of half-maximal effect; tags give direction and shape of the fitted curve.

Row | Structure (SMILES) | Potency | activity, negative = inhibition
1 | CCn1c(SCC(=O)Nc2nc(C)c(C)s2)nnc1-c1ccco1 | inconclusive [inhibitor, single point] | –
2 | CCc1cc(C(=O)COc2ccccc2F)c(O)cc1O | inconclusive [inhibitor, single point] | –
3 | CCOC(=O)C1=C(c2ccccc2)NC(=O)NC1c1ccc(N(C)C)cc1 (stereo unspecified) | inconclusive [inhibitor, partial curve] | –
4 | COC(=O)c1ccc(OC)c(CSc2nnc(COc3ccccc3)o2)c1 | – | inactive: 1.43%
5 | COc1ccc(-c2nnc(SCC(=O)NC3CCCCC3)o2)cc1OC | inconclusive [inhibitor, partial curve] | –
6 | COc1ccc([C@@H]2[C@H]3CN(C(C)=O)CC=C3C(C#N)=C(N)C2(C#N)C#N)c2ccccc12 | – | inactive: -33.3%
7 | COCCNC(=O)c1snc2ccc(Cl)cc12 | inconclusive [inhibitor, partial curve] | –
8 | CCCOc1ccc(N2C(=O)CC(SCCN)C2=O)cc1 (stereo unspecified) | – | inactive: -7.87%
9 | COc1ccc(-c2nc(NC(=O)c3cc(C(C)(C)C)nn3C)sc2C)cc1 | inconclusive [inhibitor, partial curve] | –
10 | O=C1N/C(=C\c2ccccc2)c2ccccc21 | inconclusive [inhibitor, partial curve] | –
11 | CCOC(=O)c1c(NC(=O)c2nc3n(n2)C(C(F)F)CC(C)N3)sc2c1CCCC2 (stereo unspecified) | inconclusive [inhibitor, full curve, poor fit] | –
12 | Cc1ccc2c(c1)c1ncnc(N3CCC4(CC3)OCCO4)c1n2C | inconclusive [inhibitor, single point] | –
13 | CN1CCN(c2nc(-c3ccccc3C(F)(F)F)nc3ccccc23)CC1 | inconclusive [inhibitor, partial curve] | –
14 | CC1C(=O)CCC2[C@]1(C)CCC1[C@]2(C)CC[C@@]2(C)C3CC(C)(C)CC[C@]3(C)CC[C@@]12C (stereo partly specified) | – | inactive: 1.51%
15 | O=C(C(F)C(F)(F)F)N1CCN(c2ccccc2)CC1 (stereo unspecified) | inconclusive [inhibitor, single point] | –
16 | c1ccc(-c2ccc(-c3ccccn3)nn2)nc1 | – | inactive: -8.77%
17 | O=c1cc(Nc2ccc3c(c2)OCCO3)[nH]c(=O)n1-c1ccc(Br)cc1 | – | inactive: 8.22%
18 | FC(F)(F)c1cccc(OCCOCCn2cncn2)c1 | – | inactive: 9.56%
19 | COc1ccc(N(C)C(=O)CCC(=O)Nc2ccc3nc(N4CCOCC4)cc(C)c3c2)c(OC)c1 | inconclusive [inhibitor, single point] | –
20 | CN(C)CCNC(=O)c1ccc(Cl)s1 | inconclusive [inhibitor, full curve, poor fit] | –
21 | COc1cc(-c2nn3c(-c4cccc(C)c4)nnc3s2)cc(OC)c1OC | – | inactive: -16.6%
22 | Cn1c(CNc2ccccn2)c(C#N)c2ccccc21 | – | inactive: -18%
23 | CCOC(=O)N1CCN(C(=O)c2oc3ccc(S(=O)(=O)N4CCCCC4)cc3c2C)CC1 | inconclusive [inhibitor, single point] | –
24 | COC(=O)C1=C(CSCc2ccco2)NC(=O)NC1c1cc(C)ccc1C (stereo unspecified) | inconclusive [inhibitor, partial curve] | –

Row | Structure (SMILES) | Potency | activity, negative = inhibition
25 | COc1ccc(-c2nnc(SC(C)C(=O)Nc3ccc4c(c3)OCCO4)o2)cc1 (stereo unspecified) | – | inactive: -11.1%
26 | O=C1CC(N2CCC(c3nc4ccccc4o3)CC2)C(=O)N1c1ccc(Cl)c(C(F)(F)F)c1 (stereo unspecified) | – | inconclusive: -35.2% [inhibitor]
27 | O=C(c1ccncc1)c1nccn1-c1ccccn1 | – | inconclusive: -45.5% [inhibitor]
28 | COCc1[nH]nc2c1C(c1ccsc1)C(C#N)=C(N)O2 (stereo unspecified) | inconclusive [inhibitor, partial curve] | –
29 | O=C(Nc1ccc2c(c1)C(=O)N(C1CCCCC1)C2=O)C1CCCO1 (stereo unspecified) | inconclusive [inhibitor, single point] | –
30 | OC[C@H]1O[C@@H](n2cnc3cncnc32)[C@H](O)[C@@H]1O | – | inactive: -0.531%
31 | CC1(C)OC2CC3C4CCC5=CC(=O)CCC5(C)C4(F)C(O)CC3(C)[C@]2(C(=O)CCl)O1 (stereo partly specified) | – | inactive: 5.45%
32 | COC(=O)C1C(=O)c2c([nH]c(C(=O)OC3CCCC3C)c2C)CC1C (stereo unspecified) | active: 31.6 µM | –
33 | O=c1cc(-c2ccccc2)c2ccccc2[nH]1 | inconclusive [inhibitor, partial curve] | –
34 | O=C(N1CCCC1)n1c(Cc2ccccc2)nc2ccccc21 | inconclusive [inhibitor, partial curve] | –
35 | COc1ccc2[nH]cc(CCNc3ncnc4ccc(-c5ccc(C(=O)N(C)C)cc5)cc34)c2c1 | inconclusive [inhibitor, full curve] | –
36 | CCOc1ccc2c(c1)c1nnc(SCC3CCCO3)nc1n2C (stereo unspecified) | inconclusive [inhibitor, partial curve] | –
37 | COc1ccc(Oc2ncc3nc(CCc4ccccc4)c(=O)n(CCC#N)c3n2)cc1 | – | inactive: -7.76%
38 | Cn1cccc1C(=O)N1CCC2(CCCN(c3ccccn3)C2)CC1 | inconclusive [inhibitor, single point] | –
39 | O=C(Nc1nc2nc(-c3ccccc3)cc(-c3ccccc3)n2n1)c1ccco1 | inconclusive [inhibitor, partial curve, poor fit] | –
40 | Cc1ccc(CCNC(=O)c2coc3nc4ccccc4nc23)cc1 | – | inactive: 26.8%
41 | COc1ccc(OC)c(S(=O)(=O)N2CCC(C(=O)Nc3ccc(C)c(C)c3)CC2)c1 | inconclusive [inhibitor, single point] | –
42 | Cc1ccc(S(=O)(=O)N(CCO)Cc2cc3ccc(C)c(C)c3[nH]c2=O)cc1 | inconclusive [inhibitor, partial curve] | –
43 | CCc1nnc(NC(=O)CSc2nnc(Cc3ccccc3)n2-c2ccccc2)s1 | – | inactive: -20.7%
44 | CCOc1ccccc1C(=O)Nc1nccs1 | inconclusive [inhibitor, partial curve, poor fit] | –
45 | Cc1cccc(C)c1NC(=O)CCCSc1nnc(-c2ccco2)n1-c1ccccc1 | inconclusive [inhibitor, single point] | –
46 | N#Cc1c2c(c(N3CCN(CCO)CC3)n3c1nc1ccccc13)CCCC2 | inconclusive [inhibitor, partial curve] | –
47 | COc1cc(NC(=O)c2cc(-c3cccc(O)c3)on2)cc(OC)c1OC | – | inactive: -29%
48 | N=c1n(Cc2ccccc2)c2ccccc2n1CC(O)COc1ccccc1 (stereo unspecified) | – | inactive: -12.3%

Row | Structure (SMILES) | Potency | activity, negative = inhibition
49 | c1ccc(CNc2ncnc3ccccc23)cc1 | active: 25.1 µM | –
50 | O=C1CC(c2ccco2)CC2=C1C=Nc1ccccc1N2 (stereo unspecified) | inconclusive [inhibitor, single point] | –
51 | Cn1c(=O)[nH]c(=O)c2c1nc(Br)n2CCCSc1nc2ccccc2o1 | active: 31.6 µM | –
52 | Cc1ccc(NC(=O)C2CCN(S(=O)(=O)c3cccc4nonc34)CC2)nc1 | inconclusive [inhibitor, partial curve] | –
53 | CCOc1cc(N2CCOCC2)c(OCC)cc1NC(=O)Cc1cn2ccsc2n1 | inconclusive [inhibitor, partial curve] | –
54 | CCN1C(=O)/C(=C\N2CCCCCC2)SC1=S | inconclusive [inhibitor, partial curve] | –
55 | CC(C(=O)NCC1(c2ccccc2)CCCC1)N1CCOCC1 (stereo unspecified) | inconclusive [inhibitor, single point] | –
56 | CCOC(=O)C1=C(CNCc2ccccc2Cl)NC(=O)NC1c1ccc2c(c1)OCO2 (stereo unspecified) | inconclusive [inhibitor, partial curve] | –
57 | CN1CCCC2(CCN(S(=O)(=O)c3ccccc3)CC2)C1 | – | inactive: -1.25%
58 | Cc1cccnc1NC(=O)COc1ccc2oc3c(c2c1)CCCC3 | inconclusive [inhibitor, single point] | –
59 | Cc1nc2cnc(N3CCN(C)CC3)nc2n(C2CC2)c1=O | inconclusive [inhibitor, single point] | –
60 | O=C(c1c(F)cccc1F)N1CCN(c2ccccc2F)CC1 | – | inactive: 19.4%
61 | C[C@]12CC[C@@H]3c4ccc(O)cc4CC[C@H]3[C@@H]1CCC2=O | – | inactive: 0.323%
62 | CCS(=O)(=O)c1nc2ccccc2n1CC(=O)N1CCCCC1 | inconclusive [inhibitor, full curve, poor fit] | –
63 | CC1=C(C(=O)OC(C)C)C(c2ccc(Br)s2)NC(=O)N1C (stereo unspecified) | inconclusive [inhibitor, single point] | –
64 | Nc1nc2sc3c(c2cc1C(=O)N1CCOCC1)CCCC3 | inconclusive [inhibitor, partial curve] | –
65 | C=CC[C@@H]1C=C[C@H](O/N=C(\C)CCN2CCc3nc(-c4ccccc4)c(-c4ccccc4)cc3C2)[C@H](CO)O1 | – | inactive: 5.53% [at 11.5 µM]
66 | O=C1Nc2cc3c(cc2Sc2ccccc21)OCCO3 | inconclusive [inhibitor, partial curve] | –
67 | CC1CCN(S(=O)(=O)c2cccc(C(=O)NCc3cccs3)c2)CC1 | inconclusive [inhibitor, single point] | –
68 | Oc1ccc2c(c1)OCC1(O)Cc3cc(O)c(O)cc3C21 (stereo unspecified) | inconclusive [inhibitor, single point] | –
69 | Cc1ccc(-c2nn3c(C)nnc3c3ccccc23)cc1S(=O)(=O)N1CCN(CCO)CC1 | inconclusive [inhibitor, partial curve] | –
70 | O=C(c1cc(-c2ccc(O)cc2)on1)N1CCc2ccccc2C1 | active: 31.6 µM | –
71 | COC(=O)c1ccc(CSc2nc(C(F)(F)F)c3c(c2C#N)CCC3)o1 | inconclusive [inhibitor, full curve, poor fit] | –
